In the supplement of paper PMC8728848:
The other results are listed elsewhere or left out.

Tests used:
Assay in all cases: glycan array binding signal (z-score within array); higher = stronger binding
Conditions in all cases: glycan notation: IUPAC condensed, linker removed
[1] = target: Fuc(a1-2)Gal(b1-4)GlcNAc(b1-3)Gal(b1-4)GlcNAc(b1-3)Gal(b1-4)GlcNAc
Procedure, shortened: (§1)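 The binding signal is a Z-score computed within each array. Data were drawn from 3228 arrays in the Consortium for Functional Glycomics database, restricted to those with a known protein sequence. Scores were averaged over arrays of the same protein sequence at different concentrations or buffers, and over linkers, and negative values can be taken as non-binding.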

[2] = target: Fuc(a1-2)Gal(b1-4)GlcNAc(b1-3)GalNAc
Procedure, shortened: as §1

[3] = target: Fuc(a1-2)Gal(b1-4)GlcNAc(b1-3)[Fuc(a1-2)Gal(b1-4)GlcNAc(b1-6)]GalNAc
Procedure, shortened: as §1

[4] = target: Fuc(a1-2)Gal(b1-4)GlcNAc(b1-3)[Fuc(a1-3)[Gal(b1-4)]GlcNAc(b1-6)]Gal(b1-4)Glc
Procedure, shortened: as §1

[5] = target: Fuc(a1-2)Gal(b1-4)GlcNAc(b1-6)GalNAc
Procedure, shortened: as §1

[6] = target: Fuc(a1-2)Gal(b1-4)GlcNAc6S
Procedure, shortened: as §1

[7] = target: Fuc(a1-2)Gal(b1-4)[Fuc(a1-3)]GlcNAc
Procedure, shortened: as §1

[8] = target: Fuc(a1-2)Gal(b1-4)[Fuc(a1-3)]GlcNAc(b1-2)Man(a1-3)[Fuc(a1-2)Gal(b1-4)[Fuc(a1-3)]GlcNAc(b1-2)Man(a1-6)]Man(b1-4)GlcNAc(b1-4)[Fuc(a1-6)]GlcNAc
Procedure, shortened: as §1

[9] = target: Fuc(a1-2)Gal(b1-4)[Fuc(a1-3)]GlcNAc(b1-2)[Fuc(a1-2)Gal(b1-4)[Fuc(a1-3)]GlcNAc(b1-4)]Man(a1-3)[Fuc(a1-2)Gal(b1-4)[Fuc(a1-3)]GlcNAc(b1-2)Man(a1-6)]Man(b1-4)GlcNAc(b1-4)GlcNAc
Procedure, shortened: as §1

[10] = target: Fuc(a1-2)Gal(b1-4)[Fuc(a1-3)]GlcNAc(b1-3)Gal(b1-4)[Fuc(a1-3)]GlcNAc
Procedure, shortened: as §1

[11] = target: Fuc(a1-2)Gal(b1-4)[Fuc(a1-3)]GlcNAc(b1-3)Gal(b1-4)[Fuc(a1-3)]GlcNAc(b1-3)Gal(b1-4)[Fuc(a1-3)]GlcNAc
Procedure, shortened: as §1

[12] = target: Fuc(a1-2)Gal(b1-4)[Fuc(a1-3)]GlcNAc(b1-3)GalNAc
Procedure, shortened: as §1

[13] = target: Fuc(a1-2)Gal(b1-4)[Fuc(a1-3)]GlcNAc(b1-3)[Neu5Ac(a2-6)Gal(b1-4)GlcNAc(b1-6)]Gal(b1-4)Glc
Procedure, shortened: as §1

[14] = target: Fuc(a1-2)Gal3S(b1-4)GlcNAc
Procedure, shortened: as §1

[15] = target: Fuc(a1-2)Gal6S(b1-3)GlcNAc
Procedure, shortened: as §1

[16] = target: Fuc(a1-2)Gal6S(b1-3)GlcNAc6S
Procedure, shortened: as §1

Fuc(a1-2)Gal6S(b1-4)Glc = target: Fuc(a1-2)Gal6S(b1-4)Glc
Procedure, shortened: as §1

[17] = target: Fuc(a1-2)Gal6S(b1-4)Glc6S
Procedure, shortened: as §1

Fuc(a1-2)[Gal(a1-3)]Gal = target: Fuc(a1-2)[Gal(a1-3)]Gal
Procedure, shortened: as §1

[18] = target: Fuc(a1-2)[Gal(a1-3)]Gal(b1-3)GalNAc
Procedure, shortened: as §1

[19] = target: Fuc(a1-2)[Gal(a1-3)]Gal(b1-3)GalNAc(b1-3)Gal(a1-4)Gal(b1-4)Glc
Procedure, shortened: as §1

[20] = target: Fuc(a1-2)[Gal(a1-3)]Gal(b1-3)GlcNAc
Procedure, shortened: as §1

[21] = target: Fuc(a1-2)[Gal(a1-3)]Gal(b1-3)GlcNAc(b1-2)Man(a1-3)[Fuc(a1-2)[Gal(a1-3)]Gal(b1-3)GlcNAc(b1-2)Man(a1-6)]Man(b1-4)GlcNAc(b1-4)GlcNAc
Procedure, shortened: as §1

[22] = target: Fuc(a1-2)[Gal(a1-3)]Gal(b1-3)GlcNAc(b1-2)Man(a1-3)[Fuc(a1-2)[Gal(a1-3)]Gal(b1-3)GlcNAc(b1-2)Man(a1-6)]Man(b1-4)GlcNAc(b1-4)[Fuc(a1-6)]GlcNAc
Procedure, shortened: as §1

[23] = target: Fuc(a1-2)[Gal(a1-3)]Gal(b1-3)GlcNAc(b1-3)GalNAc
Procedure, shortened: as §1

[24] = target: Fuc(a1-2)[Gal(a1-3)]Gal(b1-3)GlcNAc(b1-6)GalNAc
Procedure, shortened: as §1

[25] = target: Fuc(a1-2)[Gal(a1-3)]Gal(b1-4)Glc
Procedure, shortened: as §1

[26] = target: Fuc(a1-2)[Gal(a1-3)]Gal(b1-4)GlcNAc
Procedure, shortened: as §1

[27] = target: Fuc(a1-2)[Gal(a1-3)]Gal(b1-4)GlcNAc(b1-2)Man
Procedure, shortened: as §1

[28] = target: Fuc(a1-2)[Gal(a1-3)]Gal(b1-4)GlcNAc(b1-2)Man(a1-3)[Fuc(a1-2)[Gal(a1-3)]Gal(b1-4)GlcNAc(b1-2)Man(a1-6)]Man(b1-4)GlcNAc(b1-4)GlcNAc
Procedure, shortened: as §1

[29] = target: Fuc(a1-2)[Gal(a1-3)]Gal(b1-4)GlcNAc(b1-2)Man(a1-3)[Fuc(a1-2)[Gal(a1-3)]Gal(b1-4)GlcNAc(b1-2)Man(a1-6)]Man(b1-4)GlcNAc(b1-4)[Fuc(a1-6)]GlcNAc
Procedure, shortened: as §1

[30] = target: Fuc(a1-2)[Gal(a1-3)]Gal(b1-4)GlcNAc(b1-3)GalNAc
Procedure, shortened: as §1

[31] = target: Fuc(a1-2)[Gal(a1-3)]Gal(b1-4)GlcNAc(b1-3)[Fuc(a1-2)[Gal(a1-3)]Gal(b1-4)GlcNAc(b1-6)]GalNAc
Procedure, shortened: as §1

[32] = target: Fuc(a1-2)[Gal(a1-3)]Gal(b1-4)GlcNAc(b1-6)GalNAc
Procedure, shortened: as §1

[33] = target: Fuc(a1-2)[Gal(a1-3)]Gal(b1-4)[Fuc(a1-3)]Glc
Procedure, shortened: as §1

[34] = target: Fuc(a1-2)[Gal(a1-3)]Gal(b1-4)[Fuc(a1-3)]GlcNAc
Procedure, shortened: as §1

[35] = target: Fuc(a1-2)[Gal(a1-3)]Gal(b1-4)[Fuc(a1-3)]GlcNAc(b1-3)GalNAc
Procedure, shortened: as §1

[36] = target: Fuc(a1-2)[Gal(a1-4)]Gal(b1-4)GlcNAc
Procedure, shortened: as §1

[37] = target: Fuc(a1-2)[GalNAc(a1-3)]Gal
Procedure, shortened: as §1

[38] = target: Fuc(a1-2)[GalNAc(a1-3)]Gal(b1-3)GalNAc(a1-3)[Fuc(a1-2)]Gal(b1-4)GlcNAc
Procedure, shortened: as §1

[39] = target: Fuc(a1-2)[GalNAc(a1-3)]Gal(b1-3)GalNAc(b1-3)Gal(a1-4)Gal(b1-4)Glc
Procedure, shortened: as §1

[40] = target: Fuc(a1-2)[GalNAc(a1-3)]Gal(b1-3)GlcNAc
Procedure, shortened: as §1

[41] = target: Fuc(a1-2)[GalNAc(a1-3)]Gal(b1-3)GlcNAc(b1-2)Man(a1-3)[Fuc(a1-2)[GalNAc(a1-3)]Gal(b1-3)GlcNAc(b1-2)Man(a1-6)]Man(b1-4)GlcNAc(b1-4)GlcNAc
Procedure, shortened: as §1

[42] = target: Fuc(a1-2)[GalNAc(a1-3)]Gal(b1-3)GlcNAc(b1-2)Man(a1-3)[Fuc(a1-2)[GalNAc(a1-3)]Gal(b1-3)GlcNAc(b1-2)Man(a1-6)]Man(b1-4)GlcNAc(b1-4)[Fuc(a1-6)]GlcNAc
Procedure, shortened: as §1

[43] = target: Fuc(a1-2)[GalNAc(a1-3)]Gal(b1-3)GlcNAc(b1-3)GalNAc
Procedure, shortened: as §1

B1: Epa22 (Candida glabrata) (protein)
chain: MGSSHHHHHHSSGLVPRGSHMKRALSSQNPFGYPIGCSPQSTNVIPGLTMELYSYPIVSGTPPNCYDASYVDPEYPRTGYLKRKMIGKSTGVTGSLNYKFSVEKACMVKYGNLPAGYNYNEPLTVSNFTMLLYGYFKPQTSGIHTFFVNADDLLYINFGAGNAFDCCKREDSKFKLGEYVAYDIWHVDSSKNKVSLNLEKDVYYPIRMFFNNIGKDSSLDLSFSVNGAVEHITDFSGYLYSVPDQPDACPAPIGYDTTCK
glycan array binding signal (z-score) [1]: -0.358
glycan array binding signal (z-score) [2]: -0.33
glycan array binding signal (z-score) [3]: -0.256
glycan array binding signal (z-score) [4]: -0.38
glycan array binding signal (z-score) [5]: 0.233
glycan array binding signal (z-score) [6]: 1.13
glycan array binding signal (z-score) [7]: -0.42
glycan array binding signal (z-score) [8]: -0.338
glycan array binding signal (z-score) [9]: -0.275
glycan array binding signal (z-score) [10]: -0.398
glycan array binding signal (z-score) [11]: -0.393
glycan array binding signal (z-score) [12]: -0.313
glycan array binding signal (z-score) [13]: -0.222
glycan array binding signal (z-score) [14]: 1.56
glycan array binding signal (z-score) [15]: 1.1
glycan array binding signal (z-score) [16]: 5.1
glycan array binding signal (z-score) (Fuc(a1-2)Gal6S(b1-4)Glc): -0.247
glycan array binding signal (z-score) [17]: 0.413
glycan array binding signal (z-score) (Fuc(a1-2)[Gal(a1-3)]Gal): 1.56
glycan array binding signal (z-score) [18]: 0.068
glycan array binding signal (z-score) [19]: -0.365
glycan array binding signal (z-score) [20]: 0.017
glycan array binding signal (z-score) [21]: -0.321
glycan array binding signal (z-score) [22]: -0.366
glycan array binding signal (z-score) [23]: -0.245
glycan array binding signal (z-score) [24]: 0.015
glycan array binding signal (z-score) [25]: 0.499
glycan array binding signal (z-score) [26]: 0.705
glycan array binding signal (z-score) [27]: -0.195
glycan array binding signal (z-score) [28]: -0.356
glycan array binding signal (z-score) [29]: -0.258
glycan array binding signal (z-score) [30]: -0.097
glycan array binding signal (z-score) [31]: -0.034
glycan array binding signal (z-score) [32]: -0.268
glycan array binding signal (z-score) [33]: -0.313
glycan array binding signal (z-score) [34]: -0.339
glycan array binding signal (z-score) [35]: -0.345
glycan array binding signal (z-score) [36]: 4.5
glycan array binding signal (z-score) [37]: -0.415
glycan array binding signal (z-score) [38]: -0.315
glycan array binding signal (z-score) [39]: -0.327
glycan array binding signal (z-score) [40]: -0.344
glycan array binding signal (z-score) [41]: -0.402
glycan array binding signal (z-score) [42]: -0.383
glycan array binding signal (z-score) [43]: -0.386
